Measurements as given in the supplement of paper PMC12067230.
Single values of this set are uncertain.
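Note: [psi-pin-] Saccharomyces cerevisiae expressing SupN fusions, induced by 100 µM Cu2SO4, selected 7 d at 30 °C without adenine and uracil, scored by deep sequencing of output versus input.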

Assay: amyloid nucleation score relative to library mode (yeast Sup35 reporter selection) (log enrichment difference); higher = more amyloid nucleation; sequences are the first 22 residues of the Bri2 peptide extended by up to 12 random residues
Settings: random library (experiment): 1;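 active = nucleation score significantly above 0 at FDR 0.05; inactive = not significantly above 0 or absent from output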
With EASNCFAIRHFENKFAVETLICRWSTSWRDDSYC the amyloid nucleation score was 3.98.
For EASNCFAIRHFENKFAVETLICRWTFAAHIKPFS, the amyloid nucleation score was “inactive”.
With EASNCFAIRHFENKFAVETLICRWVTHQAVLWLH the amyloid nucleation score was 0.474.
In the case of EASNCFAIRHFENKFAVETLICRWWIGME, the amyloid nucleation score was “inactive”.
For EASNCFAIRHFENKFAVETLICRWYDKSGISYSS, the amyloid nucleation score was “inactive”.
With EASNCFAIRHFENKFAVETLICRWYF the amyloid nucleation score was “inactive”.
For EASNCFAIRHFENKFAVETLICRWYLELHDYSNM, the amyloid nucleation score was “inactive”.
With EASNCFAIRHFENKFAVETLICRYA the amyloid nucleation score was “inactive”.
With EASNCFAIRHFENKFAVETLICRYANGSQTWQVQ the amyloid nucleation score was “inactive”.
Sequence EASNCFAIRHFENKFAVETLICRYAQVYMSWRRW has an amyloid nucleation score of -0.288.
For EASNCFAIRHFENKFAVETLICRYDCCRSLIRVR, the amyloid nucleation score was “inactive”.
In the case of EASNCFAIRHFENKFAVETLICRYDCSKGSILGE, the amyloid nucleation score was “inactive”.
With EASNCFAIRHFENKFAVETLICRYGLDGFHNVQT the amyloid nucleation score was “inactive”.
EASNCFAIRHFENKFAVETLICRYGLWKHMEGFI gave an amyloid nucleation score of 2.15.
For EASNCFAIRHFENKFAVETLICRYGRQLRSVAVC, the amyloid nucleation score was “inactive”.
In the case of EASNCFAIRHFENKFAVETLICRYHRVGRVAVKR, the amyloid nucleation score was “inactive”.
EASNCFAIRHFENKFAVETLICRYIRA gave an amyloid nucleation score of 3.43.
In the case of EASNCFAIRHFENKFAVETLICRYKDEEERDSGH, the amyloid nucleation score was “inactive”.
For EASNCFAIRHFENKFAVETLICRYKFSTVTFVPC, the amyloid nucleation score was “inactive”.
In the case of EASNCFAIRHFENKFAVETLICRYLSCSFHYPWA, the amyloid nucleation score was “inactive”.
EASNCFAIRHFENKFAVETLICRYMARCNDFTR showed an amyloid nucleation score of 2.28.
With EASNCFAIRHFENKFAVETLICRYMSGLLSALMP the amyloid nucleation score was “inactive”.
For EASNCFAIRHFENKFAVETLICRYPIPLTVWVWS, the amyloid nucleation score was “inactive”.
Work on EASNCFAIRHFENKFAVETLICRYQM yielded an amyloid nucleation score of 2.81.
For EASNCFAIRHFENKFAVETLICRYQSVSFFCVLD, the amyloid nucleation score was “inactive”.
In the case of EASNCFAIRHFENKFAVETLICRYRAWSQVPSTC, the amyloid nucleation score was “inactive”.
For EASNCFAIRHFENKFAVETLICRYRITPFLTGPH, the amyloid nucleation score was “inactive”.
With EASNCFAIRHFENKFAVETLICRYRSFCFWDAA the amyloid nucleation score was “inactive”.
EASNCFAIRHFENKFAVETLICRYSVDVLGELCC gave an amyloid nucleation score of 1.74.
In the case of EASNCFAIRHFENKFAVETLICRYSVSLGSGGIG, the amyloid nucleation score was “inactive”.
Work on EASNCFAIRHFENKFAVETLICRYTMFYFSRSFH yielded an amyloid nucleation score of -0.345.
For EASNCFAIRHFENKFAVETLICRYVDITKFRHSV, the amyloid nucleation score was “inactive”.
With EASNCFAIRHFENKFAVETLICRYVGHTPTYFLE the amyloid nucleation score was “inactive”.
For EASNCFAIRHFENKFAVETLICTA, the amyloid nucleation score was “inactive”.
EASNCFAIRHFENKFAVETLICTAA gave an amyloid nucleation score of 0.275.
Sequence EASNCFAIRHFENKFAVETLICTAARSTVVSDRS has an amyloid nucleation score of -0.111.
In the case of EASNCFAIRHFENKFAVETLICTACVVLGHQYVP, the amyloid nucleation score was 5.49.
In the case of EASNCFAIRHFENKFAVETLICTADV, the amyloid nucleation score was “inactive”.
EASNCFAIRHFENKFAVETLICTAEWWARRASGA gave an amyloid nucleation score of 4.49.
With EASNCFAIRHFENKFAVETLICTAFDCRMRWVWR the amyloid nucleation score was “inactive”.
For EASNCFAIRHFENKFAVETLICTAGM, the amyloid nucleation score was “inactive”.
With EASNCFAIRHFENKFAVETLICTAGWMC the amyloid nucleation score was 4.27.
For EASNCFAIRHFENKFAVETLICTAIEVQSVMRWG, the amyloid nucleation score was “inactive”.
EASNCFAIRHFENKFAVETLICTALMCSRVARAK gave an amyloid nucleation score of -0.708.
For EASNCFAIRHFENKFAVETLICTAMGFGTNQCSS, the amyloid nucleation score was “inactive”.
For EASNCFAIRHFENKFAVETLICTAPWAGEWHVDT, the amyloid nucleation score was 4.63.
With EASNCFAIRHFENKFAVETLICTARCMRCGETAR the amyloid nucleation score was “inactive”.
Work on EASNCFAIRHFENKFAVETLICTASCAGFLCEPS yielded an amyloid nucleation score of 3.44.
With EASNCFAIRHFENKFAVETLICTAWANPKIFELC the amyloid nucleation score was “inactive”.
For EASNCFAIRHFENKFAVETLICTAWWA, the amyloid nucleation score was 5.07.
With EASNCFAIRHFENKFAVETLICTCAHGTVRIVSV the amyloid nucleation score was “inactive”.
With EASNCFAIRHFENKFAVETLICTCG the amyloid nucleation score was “inactive”.
For EASNCFAIRHFENKFAVETLICTCGALWKGSRLA, the amyloid nucleation score was “inactive”.
For EASNCFAIRHFENKFAVETLICTCGSLRTLSVLR, the amyloid nucleation score was “inactive”.
With EASNCFAIRHFENKFAVETLICTCLASCE the amyloid nucleation score was “inactive”.

Same assay, conditions: random library (experiment): 2
In the case of EASNCFAIRHFENKFAVETLICRY, the amyloid nucleation score was “inactive”.
For EASNCFAIRHFENKFAVETLICRYAYV, the amyloid nucleation score was 0.741.
In the case of EASNCFAIRHFENKFAVETLICRYCHMDILMVVG, the amyloid nucleation score was “inactive”.
In the case of EASNCFAIRHFENKFAVETLICRYDSM, the amyloid nucleation score was “inactive”.
Work on EASNCFAIRHFENKFAVETLICRYF yielded an amyloid nucleation score of -0.239.
For EASNCFAIRHFENKFAVETLICRYFNCNAGMLFV, the amyloid nucleation score was “inactive”.
In the case of EASNCFAIRHFENKFAVETLICRYG, the amyloid nucleation score was “inactive”.
For EASNCFAIRHFENKFAVETLICRYGPQVFRLLVS, the amyloid nucleation score was “inactive”.
In the case of EASNCFAIRHFENKFAVETLICRYIKHHYAKIWL, the amyloid nucleation score was “inactive”.
For EASNCFAIRHFENKFAVETLICRYIKHQCSLGKC, the amyloid nucleation score was “inactive”.
With EASNCFAIRHFENKFAVETLICRYIQGHGWCYRQ the amyloid nucleation score was 1.62.
In the case of EASNCFAIRHFENKFAVETLICRYKNSAPVSTMI, the amyloid nucleation score was “inactive”.
With EASNCFAIRHFENKFAVETLICRYNCEQMWCLRM the amyloid nucleation score was “inactive”.
In the case of EASNCFAIRHFENKFAVETLICRYPGYVAIESLC, the amyloid nucleation score was “inactive”.
In the case of EASNCFAIRHFENKFAVETLICRYRALAMGLVCC, the amyloid nucleation score was “inactive”.
With EASNCFAIRHFENKFAVETLICRYRKRWYYYYNV the amyloid nucleation score was “inactive”.
In the case of EASNCFAIRHFENKFAVETLICRYRMAENWTVLL, the amyloid nucleation score was “inactive”.
Sequence EASNCFAIRHFENKFAVETLICRYTSCQPTPLEF has an amyloid nucleation score of 0.598.
In the case of EASNCFAIRHFENKFAVETLICRYTWMV, the amyloid nucleation score was “inactive”.
In the case of EASNCFAIRHFENKFAVETLICTAFIVQISCGFH, the amyloid nucleation score was 4.61.
With EASNCFAIRHFENKFAVETLICTAFNTNDHGERE the amyloid nucleation score was “inactive”.
In the case of EASNCFAIRHFENKFAVETLICTAKLIGASGKGG, the amyloid nucleation score was 4.74.
For EASNCFAIRHFENKFAVETLICTAVLFILETRLQ, the amyloid nucleation score was “inactive”.
EASNCFAIRHFENKFAVETLICTAYFMYSLRSDI showed an amyloid nucleation score of 0.027.
EASNCFAIRHFENKFAVETLICTC showed an amyloid nucleation score of 0.828.
EASNCFAIRHFENKFAVETLICTCANFGYAVIM gave an amyloid nucleation score of 7.96.
For EASNCFAIRHFENKFAVETLICTCDGYCSRFIM, the amyloid nucleation score was “inactive”.
Work on EASNCFAIRHFENKFAVETLICTCDILSMDVT yielded an amyloid nucleation score of 4.67.
For EASNCFAIRHFENKFAVETLICTCFFL, the amyloid nucleation score was 8.34.
EASNCFAIRHFENKFAVETLICTCFSAVRGHPSY gave an amyloid nucleation score of 9.16.
In the case of EASNCFAIRHFENKFAVETLICTCKCLWFYLP, the amyloid nucleation score was “inactive”.

Same assay, conditions: random library (experiment): 3
EASNCFAIRHFENKFAVETLICRWTGHQMSREQD gave an amyloid nucleation score of 0.419.
In the case of EASNCFAIRHFENKFAVETLICRWVSLAGQGLCR, the amyloid nucleation score was “inactive”.
For EASNCFAIRHFENKFAVETLICRWVWVGEWACSA, the amyloid nucleation score was “inactive”.
With EASNCFAIRHFENKFAVETLICRWWCTSDEWWSL the amyloid nucleation score was “inactive”.
With EASNCFAIRHFENKFAVETLICRWWLLWIRARSA the amyloid nucleation score was “inactive”.
In the case of EASNCFAIRHFENKFAVETLICRWWPVEPSGRST, the amyloid nucleation score was “inactive”.
EASNCFAIRHFENKFAVETLICRYAWPDCSRFIR showed an amyloid nucleation score of 1.
In the case of EASNCFAIRHFENKFAVETLICRYC, the amyloid nucleation score was “inactive”.
For EASNCFAIRHFENKFAVETLICRYCSGSPWSVLE, the amyloid nucleation score was “inactive”.
For EASNCFAIRHFENKFAVETLICRYFMFCNMYAWG, the amyloid nucleation score was “inactive”.
In the case of EASNCFAIRHFENKFAVETLICRYGENGGSPT, the amyloid nucleation score was “inactive”.
For EASNCFAIRHFENKFAVETLICRYGFRHGDFFAL, the amyloid nucleation score was “inactive”.
With EASNCFAIRHFENKFAVETLICRYHMCYVTGSAL the amyloid nucleation score was “inactive”.
For EASNCFAIRHFENKFAVETLICRYKCFLYYIQDG, the amyloid nucleation score was “inactive”.
For EASNCFAIRHFENKFAVETLICRYKGRSTELLML, the amyloid nucleation score was “inactive”.
Work on EASNCFAIRHFENKFAVETLICRYLAGMCNRFLR yielded an amyloid nucleation score of -0.142.
With EASNCFAIRHFENKFAVETLICRYLGAS the amyloid nucleation score was “inactive”.
In the case of EASNCFAIRHFENKFAVETLICRYLSLLSTWF, the amyloid nucleation score was “inactive”.
In the case of EASNCFAIRHFENKFAVETLICRYLTHDPVCRTR, the amyloid nucleation score was “inactive”.
With EASNCFAIRHFENKFAVETLICRYLYLFSYTCHD the amyloid nucleation score was “inactive”.
EASNCFAIRHFENKFAVETLICRYQGV gave an amyloid nucleation score of 1.41.
For EASNCFAIRHFENKFAVETLICRYVLSCVNSVPS, the amyloid nucleation score was “inactive”.
For EASNCFAIRHFENKFAVETLICRYVNGVLVVVTC, the amyloid nucleation score was “inactive”.
EASNCFAIRHFENKFAVETLICTAFGLFSEKRRR showed an amyloid nucleation score of 6.51.
In the case of EASNCFAIRHFENKFAVETLICTAGRR, the amyloid nucleation score was “inactive”.
For EASNCFAIRHFENKFAVETLICTAGSWNRERLWY, the amyloid nucleation score was 2.
With EASNCFAIRHFENKFAVETLICTAKNRRSVVMMA the amyloid nucleation score was “inactive”.
For EASNCFAIRHFENKFAVETLICTATLFDAVAQRW, the amyloid nucleation score was 4.33.
With EASNCFAIRHFENKFAVETLICTAVIVFASIVKR the amyloid nucleation score was “inactive”.
With EASNCFAIRHFENKFAVETLICTAYISGISVWY the amyloid nucleation score was 4.46.
Sequence EASNCFAIRHFENKFAVETLICTCDRGLRCSP has an amyloid nucleation score of 6.49.
In the case of EASNCFAIRHFENKFAVETLICTCENRRLVGGT, the amyloid nucleation score was 3.15.
Sequence EASNCFAIRHFENKFAVETLICTCLCC has an amyloid nucleation score of 7.55.
